Source: PubChem BioAssay AID485341 (National Center for Advancing Translational Sciences (NCATS), 2010)
Hit rate of the full screen: of about 330,000 compounds, about 1,700 (0.52%) were called active. Inconclusive means that the source gave no clear call. Such entries were picked first, then a sample of the others. Calls follow the shape of the dose curve; as a rule, active = well fitted inhibition curve with a large enough effect; inconclusive = small, poorly fitted or top-dose-only effect; inactive = no such curve, though single readings can be large or run the other way. A potency beside an inconclusive call is a rough fit, not a confirmed value.

Target: Beta-lactamase (Escherichia coli (strain K12)) (UniProt P00811)
Test: qHTS Inhibitors of AmpC Beta-Lactamase (assay without detergent); also: nearly all actives have a fitted effect of over 20% in size
Conditions: AmpC nitrocefin hydrolysis, absorbance 480 nm, 0.0001% Triton; series mostly up to 57.1 µM
How it was run: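 AmpC (5.3 nM in the dispensed reagent) in 20 mM phosphate pH 7.0 with 0.01% (detergent screen) or 0.0001% Triton X-100 was preincubated with compounds for 15 min at room temperature. Nitrocefin was then added from an 800 uM solution, and hydrolysis was followed at 480 nm.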
Potency is read from the fitted curve at half-maximal effect; tags tell the direction and shape of the fitted curve.

UniProt P00811, sequence (P00811 whole entry, looked up): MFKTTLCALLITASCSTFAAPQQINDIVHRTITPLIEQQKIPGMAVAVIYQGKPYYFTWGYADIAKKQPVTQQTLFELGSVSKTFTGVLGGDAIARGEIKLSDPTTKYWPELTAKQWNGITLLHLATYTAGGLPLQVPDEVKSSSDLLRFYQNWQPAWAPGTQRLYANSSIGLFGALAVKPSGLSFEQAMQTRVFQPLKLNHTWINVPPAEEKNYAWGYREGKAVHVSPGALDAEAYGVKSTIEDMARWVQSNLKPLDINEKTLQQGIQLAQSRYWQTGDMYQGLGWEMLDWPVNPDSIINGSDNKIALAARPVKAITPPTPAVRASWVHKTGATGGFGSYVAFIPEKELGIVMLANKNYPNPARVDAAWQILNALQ

| Structure (SMILES) | Potency |
| --- | --- |
| CCN1C(=O)c2cccc3c(NC(=O)c4ccc(OC)c(OC)c4)ccc1c23 | inconclusive: 0.447 µM [inhibitor, full curve, poor fit] |
| CNc1cc(N2CCN(S(=O)(=O)N(C)C)CC2)ccc1[N+](=O)[O-] | inactive |
| S=C(NCCc1ccccc1)N/N=C/c1ccc(Cl)cc1 | inconclusive: 3.98 µM [inhibitor, full curve, poor fit] |
| Cc1ccc(-c2c(C(=O)N/N=C/c3c[nH]c4ccccc34)nnn2-c2nonc2N)cc1 | inconclusive: 2 µM [inhibitor, full curve, poor fit] |
| CCOC(=O)c1c(C)[nH]c(C2=NNC(=Nc3cccc(Cl)c3)SC2)c1C | inconclusive: 5.01 µM [inhibitor, full curve, poor fit] |
| N=c1c2c(ncn1Cc1ccco1)Oc1cc(O)ccc1C2c1ccccc1 (stereo not given) | inactive |
| CCCC[C@@H]1C[C@H]1[C@@H](NC(=O)c1cccs1)c1ccc(Cl)cc1 | inconclusive: 17.8 µM [inhibitor, partial curve] |
| Cn1c2cc(B(O)O)sc2c2cnn(Cc3ccccc3F)c(=O)c21 | active: 2.82 µM |
| COc1ccccc1CNC(=O)c1ccc(NS(=O)(=O)c2cccs2)cc1 | inconclusive: 15.8 µM [inhibitor, partial curve] |
| O=S(=O)(c1ccc(OCc2ccc(Br)cc2)cc1)N1CCOCC1 | inactive |
| CS(=O)(=O)c1cccc(C(=O)Nc2cccc(-c3nc4ccccc4[nH]3)c2)c1 | active: 17.8 µM |
| CN(C)S(=O)(=O)c1cccc(-n2sc3ccccc3c2=O)c1 | active: 35.5 µM |
| O=S(=O)(NCc1cn2ccsc2n1)c1ccc(Oc2ccccc2)cc1 | active: 3.98 µM |
| Cc1ccc(C)c(NC(=O)c2cc(-c3cc(C)cc(C)c3O)n[nH]2)c1 | inconclusive: 7.94 µM [inhibitor, partial curve] |
| COC(=O)NNC1=CC(=O)CC(C)(C)C1 | inconclusive: 39.8 µM [inhibitor, single point] |
| O=C(N/N=C/c1sc(N2CCOCC2)nc1-c1ccccc1)c1ccc(O)cc1 | inconclusive: 14.1 µM [inhibitor, partial curve] |
| Cc1ccc(NS(=O)(=O)c2ccc(NC(=O)c3ccc(Br)o3)cc2)c(C)c1 | inconclusive: 6.31 µM [inhibitor, single point] |
| COC(=O)c1cc(-c2ccccc2)n[nH]1 | inconclusive: 6.31 µM [inhibitor, single point] |
| Nc1c(-c2ccccc2)cnn1-c1cccc(C(F)(F)F)c1 | inconclusive: 0.708 µM [inhibitor, partial curve, poor fit] |
| Cc1cc(N/N=C/c2ccc(Cl)cc2)nc(NCc2ccccc2)n1 | inactive |
| CC(=O)c1ccc(NC(=O)CC2Nc3cccc4cccc(c34)NC2=O)cc1 (stereo not given) | active: 15.8 µM |
| O=C(Nc1nc(-c2cc3ccccc3o2)cs1)c1ccc(S(=O)(=O)N2CCCC2)cc1 | active: 17.8 µM |
| CCCCn1c(CN2CCN(c3ccccc3)CC2)nc2c1c(=O)n(C)c(=O)n2C | inconclusive: 0.708 µM [inhibitor, full curve, poor fit] |
| COCCSc1nnc(NC(=O)CSCc2ccccc2)s1 | inconclusive: 5.01 µM [inhibitor, partial curve, poor fit] |

| Structure (SMILES) | Potency |
| --- | --- |
| COc1ccc(CNC(=O)c2cnc3cc(C)ccn3c2=O)cc1 | inconclusive: 0.0794 µM [inhibitor, full curve, poor fit] |
| COc1cc2c(cc1OC)C(COc1ccc([N+](=O)[O-])cc1)N(C(C)=O)CC2 (stereo not given) | inactive |
| Cc1ccc(NC(=O)CSc2nc(N)cc(=O)[nH]2)cc1Cl | inconclusive: 31.6 µM [inhibitor, single point] |
| COc1ccc(CCNC(=O)C/C(C)=N/NC(=O)c2ccc(N)cc2)cc1OC | inconclusive: 0.141 µM [inhibitor, full curve, poor fit] |
| COc1ccc(NC(=S)N(CCc2c(C)[nH]c3ccc(C)cc23)Cc2ccco2)cc1 | active: 17.8 µM |
| C=CCN1C(=O)/C(=C/c2ccc3c(c2)CCCN3CCC)C(=O)NC1=S | inactive |
| CC[n+]1ccc(C[n+]2ccccc2)c2ccccc21 | inconclusive: 25.1 µM [inhibitor, single point] |
| CCN(CC(=O)NC1CCCCC1)S(=O)(=O)c1ccc(Cl)cc1 | inconclusive: 1.26 µM [inhibitor, partial curve, poor fit] |
| Cc1cccc(NC(=O)NNC(=O)c2cc3ccccc3cc2O)c1C | inconclusive: 17.8 µM [inhibitor, single point] |
| Nc1c(C(=O)Nc2ccc(F)cc2)sc2nc(-c3ccco3)ccc12 | inconclusive: 11.2 µM [inhibitor, partial curve] |
| C/C(CC1CC(COCC(C)C)OC1=O)=N\Nc1nc(-c2ccccc2)cs1 (stereo not given) | inconclusive: 7.08 µM [inhibitor, partial curve, poor fit] |
| Cc1c(C#N)c(N)nc2c3c(sc12)NC(=O)CC3c1ccc(Cl)cc1 (stereo not given) | inconclusive: 17.8 µM [inhibitor, partial curve] |
| O=S(=O)(Nc1cccc(-c2ccc(N3CCCCCC3)nn2)c1)c1ccccc1Cl | active: 2.51 µM |
| CC(NC(=O)CN(C)CC(=O)Nc1ccc(Cl)c(C(F)(F)F)c1)c1ccccc1 (stereo not given) | inconclusive: 39.8 µM [inhibitor, single point] |
| Cc1ccc(C2CC(=O)C=C(O)C2)cc1 (stereo not given) | active: 14.1 µM |
| O=C(Cc1ccccc1)N(c1ccc(F)cc1)C1C=CS(=O)(=O)C1 (stereo not given) | inconclusive: 5.01 µM [inhibitor, single point] |
| O=C(Nc1ccc2c(c1)oc1ccc(S(=O)(=O)N3CCCC3)cc12)C1CC1 | inconclusive: 39.8 µM [inhibitor, single point] |
| COc1ccc(N(C(=O)Cn2nnc(-c3ccc(Cl)cc3)n2)C(C(=O)NCC2CCCO2)c2ccc(C)cc2)cc1 (stereo not given) | inconclusive: 4.47 µM [inhibitor, single point] |
| CN1C(=S)SC(N(O)C(=O)NC2CCCCC2)C1(C)C (stereo not given) | inconclusive: 5.01 µM [inhibitor, single point] |
| O=C1C(c2ccncc2)=C(O)c2ccccc21 | inconclusive: 8.91 µM [inhibitor, single point] |
| CC(NCC(=O)NC(=O)NC1CCCC1)c1ccc(Cl)cc1Cl (stereo not given) | inconclusive: 39.8 µM [inhibitor, single point] |
| COCCCNC(=O)CC(NS(=O)(=O)c1ccc(OC)cc1)c1ccc(OC)cc1 (stereo not given) | inconclusive: 7.08 µM [inhibitor, partial curve, poor fit] |
| CCOC(=O)C1=C(C)NC(C)=C(C(=O)OCC)C1C(=O)OCC(=O)N1c2ccccc2CC1C (stereo not given) | inactive |
| O=C(CSc1nnnn1-c1ccccc1Cl)Nc1ccc2c(c1)OCCO2 | active: 31.6 µM |

| Structure (SMILES) | Potency |
| --- | --- |
| C(=N\Nc1ncnc2sc3c(c12)CCC3)/c1cccs1 | inactive |
| O=C(c1ccc(N2CCN(C(=O)c3ccc(F)cc3F)CC2)cc1)c1cccc(F)c1 | inactive |
| CCCNCc1cc(OC)c(OCC(=O)NCCc2ccccc2)cc1Br | inactive |
| COc1cccc2cc(C(=O)OC3CCN(C)CC3)c(=O)oc12 | inactive |
| COc1ccc(NC(=O)CN(C)C(=O)c2ccc(NS(=O)(=O)c3ccc(F)cc3)cc2)cc1 | inconclusive: 31.6 µM [inhibitor, single point] |
| O=C(N/N=C/c1ccc(O)c(O)c1)c1cccc(S(=O)(=O)N2CCCCC2)c1 | active: 14.1 µM |
| Cc1c(N(C)S(=O)(=O)c2cc(C(=O)Nc3ccccn3)ccc2Cl)c(=O)n(-c2ccccc2)n1C | inconclusive: 39.8 µM [inhibitor, single point] |
| CCCCn1c(N)c(N(CCOC)C(=O)c2ccc(Br)s2)c(=O)[nH]c1=O | inconclusive: 39.8 µM [inhibitor, single point] |
| CCOC(=O)c1c(NC(=S)NC)sc2c1CC(C)(C)SC2 | inactive |
| COc1cccc(CNc2ncnc3cc(Cl)ccc23)c1 | inactive |
| Cc1ccnc(NCc2ccc(Br)cc2)c1 | inactive |
| O=c1c2ccccc2[se]n1-c1ccccc1 | inconclusive: 25.1 µM [inhibitor, partial curve, poor fit] |
| CCOc1ccc(NC(=O)c2ccc3c(c2)N(Cc2ccc(F)cc2)C(=O)CS3=O)cc1 (stereo not given) | inconclusive: 0.224 µM [inhibitor, full curve, poor fit] |
| O=C(NC(=S)Nc1ccc(N2CCCCC2)cc1)c1ccc2c(c1)OCCO2 | inconclusive: 1.41 µM [inhibitor, full curve, poor fit] |
| Cc1ccc(C)c(-c2csc(-c3cccnc3)n2)c1 | inactive |
| Cc1ccc(C(=O)Nc2ccc(C(=O)N/N=C/c3ccc(C)o3)cc2)cc1 | inconclusive: 17.8 µM [inhibitor, partial curve] |
| CC(C)n1c(=O)c(C=Nc2ccc(Br)cc2)c(O)n(Cc2ccco2)c1=O | active: 14.1 µM |
| O=S(=O)(c1cccc2cnccc12)N1CCCNCC1 | inconclusive: 22.4 µM [inhibitor, partial curve] |
| O=C(CCC(=O)OCc1cccc(C(=O)Oc2ccccc2)c1)Nc1cccc2ccccc12 | inconclusive: 1 µM [inhibitor, partial curve, poor fit] |
| COc1ccc(Nc2nc(-c3ccccc3O)nc3ccccc23)cc1 | active: 2 µM |
| O=C(c1ccc(Cn2cc(Br)cn2)o1)n1cccn1 | active: 0.501 µM |
| COc1cccc(CNC(=O)CCc2nc3cc(S(=O)(=O)N4CCOCC4)ccc3n2C)c1 | inconclusive: 28.2 µM [inhibitor, single point] |
